Hit rate of the full screen: of about 340,000 compounds, about 12,000 (3.5%) were called active. The shares of active, inactive and inconclusive entries below differ from those in the screen. Calls come from the whole dose curve; as a rule, active = well fitted inhibition curve with a large enough effect; inconclusive = small, poorly fitted or top-dose-only effect, or another doubt; inactive = no such curve, though single readings can be large or run the other way. Potencies of inconclusive entries are left out as doubtful fits.
Assay: qHTS Assay for Inhibitors of Hepatitis C Virus (HCV)
Settings: Huh7.5.1 HCVcc-Cre (HCVcc is cell-culture hepatitis C virus) infection, luciferase reporter, 44 h; activity change, negative = inhibition: at 41.8 µM (top of the series) unless noted
Summary of the method: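 Luciferase read-out (15 sec integration) after a 15 min room-temperature substrate step quantifies HCVcc-Cre infection. Cells, 1,000 per well, had compound added 4 h post-plating, then virus at ~0.5 moi, and were cultured 44 h.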
% is set by controls: 0 for no effect and ±100 for the full control effect; potency is the fitted concentration of half-maximal effect; tags give direction and shape of the fitted curve.

Compound	Potency	activity change, negative = inhibition
CC(C)(C)c1cc(C(=O)N/N=C/c2ccc(-c3ccccc3[N+](=O)[O-])o2)n[nH]1	inconclusive [inhibitor, single point]	
CC(C(=O)Nc1ccccc1-c1ccccc1)N1CCN(S(=O)(=O)c2ccccc2)CC1 (stereo not drawn)	inconclusive [inhibitor, single point]	
Cc1ccc(-n2nnnc2-c2cnc3cc4c(cc3c2C)OCO4)cc1	inconclusive [inhibitor, single point]	
CCOC(=O)N1CCC(NC(=O)CS(=O)(=O)Cc2nc(-c3ccccc3C)oc2C)CC1	inconclusive [inhibitor, single point]	
COC(=O)C1=C(C)N(Cc2ccccc2)C(=NCc2ccccc2)N[C@H]1c1cccc(F)c1	inconclusive [inhibitor, single point]	
O=C1CS(=O)(=O)N(Cc2ccccc2F)c2ccc(Br)cc21		inactive: -1.28%
O=C(O)C1C2C=CC(C2)C1C(=O)OCc1ccccc1 (stereo not drawn)		inactive: 1.61%
COc1ccc(/C=C2/SC(=O)N(CCC(=O)Nc3ccccc3)C2=O)cc1OC		inactive: 24.6%
C=CCn1c(SCC(=O)NCc2ccc3c(c2)OCO3)nc2scc(-c3ccccc3)c2c1=O	inconclusive [inhibitor, single point]	
CCCCN(CCCC)CCCOC(=O)c1ccc(N)cc1	inconclusive [inhibitor, full curve]	
O=C(Cc1cccc(NC(=O)C2CCN(C(=O)C3CCCCC3)CC2)c1)Nc1cccc(C(=O)N2CCCCC2)c1		inactive: 36.7% [at 8.37 µM]
Cc1cc(C)c(S(=O)(=O)N2CCCCC2)c(C)c1N(C)S(=O)(=O)c1ccc(Cl)cc1	inconclusive [inhibitor, partial curve]	
Cc1cccc(NC(=S)N2CCCC(c3nc4ccccc4[nH]3)C2)c1 (stereo not drawn)	inconclusive [inhibitor, single point]	
CCN1CCN(CCCNC(=O)c2ccc3c(c2)N(Cc2ccccc2)CCS3)CC1	active: 10 µM	
COc1ccccc1CNC(=O)c1ccccc1OCc1ccc(F)cc1	inconclusive [inhibitor, partial curve]	
CCCS(=O)(=O)n1nc(-c2ccc(OC)cc2)cc1N		inactive: -7.21%
CCN1CCN(c2ccc(S(=O)(=O)N3CCCCC3)cc2NC(=O)c2cccc(C)c2[N+](=O)[O-])CC1	inconclusive [inhibitor, single point]	
CC(C)Cn1c2c(c(O)c(C(=O)Nc3nccs3)c1=O)CCCC2	inconclusive [inhibitor, single point]	
C/C(=N\NC(=O)c1ccccc1N)c1ccc(NC(=O)Cc2ccccc2)cc1		inactive: 16.1%
Clc1ccc(OCc2nc3ccccc3[nH]2)cc1	active: 11.2 µM	
CN(C(=O)c1cccc(NC(=O)Cc2ccc(NC(=O)C3CCCN(C(=O)C4CCC4)C3)cc2)c1)C1CC1 (stereo not drawn)	inconclusive [inhibitor, partial curve]	
OCCC1CN(Cc2nc(-c3ccccc3)cs2)CCN1CCc1ccccc1 (stereo not drawn)	inconclusive [inhibitor, single point]	

Compound	Potency	activity change, negative = inhibition
Cc1ccc(Nc2ccc([N+](=O)[O-])nc2[N+](=O)[O-])cc1	inconclusive [inhibitor, single point]	
CC1(c2ccccc2)NC(=O)N(CC(=O)Nc2nc(-c3ccccn3)cs2)C1=O (stereo not drawn)	inconclusive [inhibitor, partial curve]	
CCOC(=O)C1=C(c2ccccc2)OC(N)=C(C#N)C1c1ccc(Br)s1 (stereo not drawn)		inactive: 1.7%
Cc1ccccc1-c1nc2cc(NC(=O)C3CC3)ccc2o1	inconclusive [inhibitor, single point]	
Cc1ccc(-c2csc(NC(=O)c3ccc(Br)cc3)c2C(=O)O)cc1		inactive: 0.242%
COc1ccc(C2C(C(N)=O)=C(C)Nc3nc(CCCO)nn32)cc1 (stereo not drawn)		inactive: 33.8%
COc1ccc(Br)cc1CN(C)C(=O)CNC(=O)c1ccc2ccccc2c1	inconclusive [inhibitor, single point]	
Cc1cc(C(=O)CSc2n[nH]c(N)n2)c(C)n1-c1cc(F)ccc1F	inconclusive [inhibitor, single point]	
CC(=O)c1sc(N)nc1C	inconclusive [inhibitor, partial curve, poor fit]	
COc1cc(NC(=O)Cc2nn(C)c(=O)c3ccccc23)cc(OC)c1OC	inconclusive [inhibitor, single point]	
CC(=O)c1ccc(NC(=O)C(C)OC(=O)/C=C/c2ccco2)cc1 (stereo not drawn)	inconclusive [inhibitor, partial curve]	
COc1ccc(C2(C(=O)c3ccccc3)C(=O)c3ccccc3C2=O)cc1	active: 3.55 µM	
CCN(CC)S(=O)(=O)c1ccc(N2CCOCC2)c(NC(=O)c2ccc(NC(C)=O)cc2)c1	inconclusive [inhibitor, single point]	
Oc1ccc(C=Nc2cccc3ncccc23)c(O)c1	inconclusive [inhibitor, partial curve]	
COc1ccc(OC)c(S(=O)(=O)NC2CC(=O)N(c3cccc(F)c3)C2)c1 (stereo not drawn)		inactive: -0.224% [at 8.37 µM]
CCNc1nc(NC(C)C)nc(Oc2ccc(/C=N/O)cc2)n1	inconclusive [inhibitor, single point]	
Cc1ccc(C)c(Nc2nc3c(S(=O)(=O)c4ccccc4)nnn3c3ccccc23)c1	inconclusive [inhibitor, partial curve]	
O=C(Nc1cccc(Br)c1)c1ccccc1-c1ccccc1		inactive: -2.99%
OC(CN1CCOCC1)Cn1c2ccccc2c2ccccc21 (stereo not drawn)		inactive: 7.39%
Cc1nn(Cc2ccccc2)c(C)c1NC(=O)CSc1nc2c(c(C(F)(F)F)n1)CCc1ccccc1-2	inconclusive [inhibitor, partial curve]	
O=C(COc1ccc(Br)cc1CO)Nc1ccc(S(=O)(=O)N2CCCCC2)cc1	inconclusive [inhibitor, single point]	

— PubChem BioAssay AID651820 (National Center for Advancing Translational Sciences (NCATS), 2012)
